Laboratory results: the supplement of paper PMC11417369
± gives the standard deviation of the averaged measurements. Some of the results follow.

system: PfAP2-G AP2 domain (GST-tagged); assay: gcPBM binding intensity (ln(normalized median fluorescence intensity)); higher = stronger DNA binding
Outline: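 GST-tagged P. falciparum DNA-binding domains, expressed in E. coli (about 25 μg on average), were applied for 1 h to an Agilent 4 × 180k array of primer-extended double-stranded 36-bp intergenic genomic probes plus negative controls. The binding buffer was 1× PBS with 1% milk, 0.2 mg/ml BSA, 0.5% salmon testes DNA and 0.03% Triton X-100. Bound protein was detected with Alexa488 anti-GST antibody and scanned at 488 nm. Binding intensity is the highest Masliner-normalised natural-log median intensity across replicate spots of either probe orientation.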

| Sequence | gcPBM binding intensity (ln) |
| --- | --- |
| AAAATGAAACAAATATGTACACATATAAATATTTCC [XGTACX_site54] | 11.3 ± 0.69 |
| TTAATTTTTGAAGGTACACACTAATATATTAAATAT [CACACA_site4791] | 11.2 ± 0.79 |
| AAATATATACTACCGATGCACTAAATATAAACACAT [GTGCAC_site9777] | 10.2 ± 0.22 |
| TTTTATGAAAAATGGCTTATCTGTAAAGAAGTGGAG [CACACA_negctrl_site1586] | 10.3 ± 0.36 |
| ATAAAGAAAATATGGAGTACATTTATATCCAATATA [XGTACX_site3085] | 11.5 ± 1 |
| ATATTTGTAATTATTAAACACACACTAATTATATAT [CACACA_site8803] | 9.96 ± 0.16 |
| TAACATATAATATTATGTACATATATACATATATAA [XGTACX_site7467] | 11.1 ± 0.66 |
| ATCAAATAATAGCAAACACACAAAAAATAAAAAAAA [CACACA_site4146] | 9.96 ± 0.15 |
| AATGTTTTTTTTTTTTTTTTTTTTTATTTATTGTTA [CACACA_negctrl_site505] | 9.68 ± 0.22 |
| ATTTTTTGGAAAAGAAGTACAATGGATTTATACGTT [XGTACX_site891] | 11.5 ± 1.1 |
| AAAAAATCACGACACACACACACACTAAAAAAAAAA [CACACA_site6792] | 10.3 ± 0.3 |
| TTTAAATAATCTAGGTGTACTTTCCTTTATAAATGT [XGTACX_site7859] | 11.3 ± 0.83 |
| AGAATACATATATGAACACACAGAGTTTTAAAAAAT [CACACA_site2735] | 10.1 ± 0.13 |
| AATATAAATAAAAACACACACAATGGTACCTATATA [CACACA_site7688] | 10.8 ± 0.47 |
| TCAATATAAATTAGTTGTACAGTTTTTTTTAATTAT [XGTACX_site6358] | 11.5 ± 0.92 |
| TATTTCAATATATACCTTTGCTTTTTTAATATACTT [XGTACX_negctrl_site556] | 9.975 ± 0.078 |
| ATATACTTTTTTTTTTTTTTTTTAACGTTATTTATG [CACACA_negctrl_site1277] | 10.1 ± 0.22 |
| AAAATATATGAAAACAGTACATATAAAAATTAAAAA [XGTACX_site2594] | 10.8 ± 0.6 |
| TTACACATATATATAAATATATATAAATATATATAT [CACACA_negctrl_site150] | 9.58 ± 0.028 |
| ATTAATTTTGGTTCATGTACATAAGAAATAAACTCT [XGTACX_site4534] | 11.3 ± 0.63 |
| ATTTTTATACGTTTTTTTTTTTTTTTTTTTTATTTA [CACACA_negctrl_site1142] | 9.89 ± 0.2 |
| GAAAAGCATAGATGCACACATATATATATATATATA [CACACA_site2169] | 10.1 ± 0.4 |

| Sequence | gcPBM binding intensity (ln) |
| --- | --- |
| GTGTTAATTTTAAATTGTACAAAATTTATATGATTT [XGTACX_site348] | 10.8 ± 0.43 |
| TATTTGTTTGAATTTTTTTTTTTTTTTTTTTATGTG [CACACA_negctrl_site966] | 9.685 ± 0.007 |
| TACAGACAGAAATGCACACACATATATATATATATA [CACACA_site2283] | 10 ± 0.19 |
| CACTACATTATGTCATAAATGCATACATAAACATAT [GTGCAC_negctrl_site513] | 10.2 ± 0.28 |
| TTTATATTTCAATTTTGTGCTTCGCAAATTGAGAGG [TGCATGCA_negctrl_site327] | 9.77 ± 0.12 |
| TATAACATAATATAGACACACACATGTACTTATGCC [CACACA_site8547] | 11.4 ± 0.91 |
| ATTTATATGTGGAGCAGTACGCACTCTCACAATTAA [XGTACX_site7252] | 11.2 ± 0.93 |
| TAAAAATTATATATCACACATATATGTCAGTATACA [CACACA_site4624] | 9.91 ± 0.099 |
| AAAGAAAAAAAATATAAAAAATAAAAAATAAAACAA [CACACA_negctrl_site374] | 9.735 ± 0.021 |
| GATGTTCATCACTACACACACAAAGAAATATATATA [CACACA_site2684] | 10.1 ± 0.23 |
| TTGGTATAAAATTATAGTACATAAGGTAAATATAAA [XGTACX_site4698] | 11.1 ± 0.72 |
| TAATATATGTATATATGTACATATAAATGTTATAGA [XGTACX_site2721] | 11.2 ± 0.59 |
| CATTTAAAAGATAAAACACACATACTAATAAAAAAC [CACACA_site5417] | 10.2 ± 0.18 |
| TTTCTTTATTAAAATATTTTACATATATAATATACG [TGCATGCA_negctrl_site564] | 9.78 |
| GTAAAATATATAAAATGTACATATATTATATATATA [XGTACX_site489] | 11 ± 0.42 |
| ACTCTCTTATATTAAACACACATATATATCTGTATA [CACACA_site5489] | 10.2 ± 0.11 |
| ACATATATTATTATATGTACATATATTAATTATATA [XGTACX_site3400] | 11.4 ± 0.89 |
| ATCATTTTTAAAGGAACACACAAAAAAAATTAAAAT [CACACA_site4878] | 10.2 ± 0.12 |
| CTTCTCTTTTTTATCATGCACTTTTTGTATAATAAT [GTGCAC_site9834] | 10.3 ± 0.25 |
| CATTTTTTATTTCCTTGTACGAATAAAATATATTTA [XGTACX_site6844] | 11.1 ± 0.88 |
| TATTATCGTTCTCATACACACAAAATATACATACAC [CACACA_site2643] | 10.2 ± 0.22 |
| TACGTAAATGTGTGTGTGCACGTTATATATTAATAT [GTGCAC_site9976] | 10.5 ± 0.42 |
